Measurements from the supplement of paper PMC10126150.
Values marked as one replicate rest on one cluster of the flow cell; about a third of the high ones do not repeat.

Tested on: ATP
Assay: switch fluorescence ratio, 500 uM ATP over buffer (Cy3 cluster intensity, sum of 5 cycles each) (fold (ratio)); higher = stronger signal-on switching upon ATP binding; sequences stand for … in TCGTCGGCAGCGTCAGATGTGTATAAGAGACAGTTTTTTTTTTTTTTTTTTTTTTTTT…TC
Settings: aptamer strand: ATP DNA aptamer (quencher-CACCTGGGGGAGTATTGCGGAGGAAGG + anchor), 100 nM annealed; ATP concentration: 500 uM; one replicate
Outline: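 Five buffer/ATP imaging cycles were run on Cy3-labelled switching-strand clusters on a modified Illumina MiSeq flow-cell, with NaOH stripping and re-annealing between cycles. In each cycle, clusters annealed to 100 nM quencher-labelled ATP aptamer were imaged in selection buffer, then after 15 min with 500 uM ATP at 22 °C. Per cluster, the fluorescence ratio is summed target-cycle over summed buffer-cycle Cy3 intensity, averaged per switch-domain sequence. Only clusters within 100-1000 RFU were kept.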
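Note: ATP exposure 15 min at 22 °C before imaging.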

Row | Sequence | switch fluorescence ratio
1 | AACGCAAAAA | 1.26
2 | TCCTATGATA | 1.08
3 | ACTTTCAATC | 1.07
4 | TCCGTCTCGT | 1.06
5 | TTAAGAAACT | 1.04
6 | CGTTGGGGA | 1.01
7 | TGGCTGTCCG | 0.957
8 | GACTTCAGAG | 0.989
9 | CATCACATGC | 1.16
10 | TGATGCGCCC | 0.994
11 | GGTGGATAAA | 0.915
12 | TAAAGCCCAC | 1.01
13 | TTAATGATCG | 1.07
14 | AGTTTCAGCA | 1
15 | TGGGGAGCGA | 0.981
16 | GAAGTTCCCG | 0.982
17 | ATACAGTTTG | 1.06
18 | ATGCTTATAG | 0.971
19 | AGGTGAAAAT | 0.99
20 | GCTTGTCGCC | 0.957
21 | TTCAGTAGAA | 1.02
22 | AAGGTTGTCC | 1.02
23 | TTTACACTTC | 0.971
24 | TAACCCCGGG | 1.25
25 | TGTACGATTC | 0.968
26 | TATATTAGA | 0.985

Row | Sequence | switch fluorescence ratio
27 | TATACATATA | 1
28 | ATCCGTGTTG | 0.995
29 | TGTGTCGTAG | 0.948
30 | TAAGGCTAGG | 1.02
31 | GGGTACCTAT | 1.01
32 | CGATATCATT | 0.97
33 | AAGGATGATC | 0.997
34 | GGGCAGGAAT | 0.987
35 | AAACCGGGG | 1.09
36 | TTTACTTTCT | 1.03
37 | AGTGTACTGA | 1.02
38 | CCGGGCAGTA | 1.96
39 | TTATGAAT | 0.96
40 | CTTATGTTCC | 1.01
41 | GTCATGAGTG | 0.967
42 | TCTTTTTCGC | 0.98
43 | ATACGTCGGA | 1
44 | GTGGCGCCGA | 1.01
45 | TACCCGCCGG | 1.04
46 | GTGTGTGCTG | 1.1
47 | TTGGTCCTGA | 0.926
48 | GGTTAAATGG | 0.997
49 | TCGTAGGCAC | 1.04
50 | CACAAGGGCT | 0.954
51 | GGGCGTCAGA | 1.02
52 | GAATTAAGAA | 0.984

Row | Sequence | switch fluorescence ratio
53 | ACTACCCAG | 1.11
54 | AACTATGGGA | 1
55 | TTGTCCTTT | 0.966
56 | TCGCGTAAAA | 0.979
57 | TGGAAGCCAT | 0.996
58 | CGCTTTATCC | 1.21
59 | CTTCCGTATG | 1.47
60 | GTCGAGAAGA | 0.987
61 | GCGTATGCGG | 1.07
62 | ACCGTGCTTT | 1.01
63 | GCAATTGAA | 1.02
64 | TAATCCGAGA | 1.05
65 | GTTCATATGA | 1.02
66 | GGGGGACGCG | 0.968
67 | CCGTAACATC | 3.34
68 | GCTGCTAAAA | 1.04
69 | CTGTACGTC | 0.969
70 | TTTGTACTG | 0.951
71 | CATATTTAGA | 0.998
72 | CGGTGTCTTC | 0.98
73 | CTCAGAAGAA | 1
74 | ATCGCTTTGA | 0.998
75 | TACTTGTAGG | 0.943
76 | CTTTTATTCT | 0.99
77 | CAGTTTCGAA | 1.02
78 | AGTCTAATAA | 1.05

Row | Sequence | switch fluorescence ratio
79 | CAGCGGCAGC | 1.01
80 | TCATAATCGA | 0.975
81 | CGTCATCGTA | 0.994
82 | TGGGAGACTA | 1.02
83 | GAATGCGTTT | 1.01
84 | CAGGGCAGGC | 0.934
85 | CATATAGGTT | 0.95
86 | TGAATGCCCT | 0.935
87 | TGTCTATTTG | 1.01
88 | ACTCCGGGTT | 2.18
89 | GGACATT | 0.972
90 | TCTGGTAAGA | 0.971
91 | CAGCTGATTG | 1.03
92 | AGCTCGTGGA | 1.04
93 | AGTCGTGTGA | 1.02
94 | TTTGTCCTAG | 0.999
95 | GATTGCGAGT | 0.966
96 | AAATAGATAG | 0.98
97 | AAACGGGTGT | 1.11
98 | AGGCTCGACG | 0.974
99 | ACTCTTTATT | 1.01
100 | TACGCCGTAA | 1.09
101 | GTGTTATGTT | 1.01
102 | GGGCCGCGGA | 1.03
103 | CTCGTGGAA | 1.05
104 | CCATAGTCGA | 1.26

Row | Sequence | switch fluorescence ratio
105 | AAACAACCCC | 1.2
106 | AGGGTCTGT | 0.976
107 | AGGGGCCTAC | 1.02
108 | CAAGTGTCAA | 1.03
109 | GTGTGGGCGG | 1.08
110 | AATGTCATCT | 0.988
111 | TTGGAGTGGC | 0.957
112 | CTTGTCAGTC | 1.02
113 | TTTCAGCGAC | 2.29
114 | CTTACTTGTT | 1.01
115 | CGGAGTCTAG | 1.09
116 | CTTAGATT | 0.994
117 | ACGTAAGGGA | 1.08
118 | GGACAAAGAT | 0.981
119 | CGATGGGTAG | 0.954
120 | AATCTCATAC | 1.14
121 | ATCAGGCTGG | 0.95
122 | ACCGCCGTGT | 1.06
123 | GAGCCGCCTA | 1
124 | AGCACATGCT | 1.11
125 | TGGGATTATA | 0.972
126 | AGAGATCTGA | 1.01
127 | TCAATTGCGG | 0.985
128 | GACCGGGGAC | 1.07
129 | TTGACGACAA | 1.14
130 | TTGATATACA | 1.02

Row | Sequence | switch fluorescence ratio
131 | ATGAGAGAGT | 1.05
132 | CCATACCGGT | 1.01
133 | TACATGGTGG | 1.02
134 | GTATAGAGGG | 0.971
135 | GCCATGAGGT | 1.01
136 | TGGTGATGGA | 1.01
137 | AGCCTACACA | 1.05
138 | GTGTCTAACG | 0.955
139 | GATCTACTAC | 1.06
140 | TATCGCAACG | 1.06
141 | ATATATCCCG | 0.976
142 | CACTGAATTG | 1.03
143 | TGTCTGTCTG | 0.952
144 | AACGGCAGCG | 1.06
145 | GAAGTCAACA | 1.02
146 | ATCCGGTAGC | 1.43
147 | TTGTTTTGCG | 1.01
148 | TCAGACGACG | 0.954
149 | TTTAACGCTC | 1.04
150 | CATATCAGGG | 1.04
151 | TAAAACTCAC | 1.02
152 | GTTAGATCAC | 0.945
153 | AGGCAACGCG | 0.985
154 | TAGATAAGGA | 0.997
155 | CATCTTGGTG | 1.06
156 | GTTAGTGACG | 1.03

Row | Sequence | switch fluorescence ratio
157 | AGTGGGTCGC | 0.981
158 | GTTGAATAGG | 1
159 | CAGATCTGAG | 1.04
160 | GATAACTACA | 1.02
161 | TTCGGTTTAG | 1.01
162 | TCTGCGGGCA | 1.18
163 | TTGATCCTTA | 1
164 | AGTCGTTG | 1
165 | CAGCACGTTC | 1.19
166 | TTAAACAGAG | 1.01
167 | GCAGTTTCAC | 1.01
168 | ATGAGTTGG | 0.992
169 | GGCGCTGCGG | 1.02
170 | AGTCCAATTG | 1
171 | ATCCTGTCAC | 1.08
172 | GAAGATGACG | 1.01
173 | ATATTAGCTA | 1
174 | ACTCGCTGAT | 1.19
175 | GAACATTTAT | 1.02
176 | TGATCCCGAG | 0.999
177 | GAACAACGAT | 0.986
178 | CCACGGGCTA | 1.15
179 | TTGCCCGCGT | 0.996
180 | GCGTGTACCT | 1.05
181 | TCGCTAGTCA | 1.02
182 | GCAGGCCTGG | 0.959

Row | Sequence | switch fluorescence ratio
183 | ACAGCTGTTC | 1.05
184 | GAAAAAAGTC | 0.977
185 | AAAAGAGGAC | 1.02
186 | AGCCTAAAAA | 0.945
187 | AGTGCAG | 1
188 | ATATTCGTAT | 0.992
189 | TGAATGTACC | 1.04
190 | TTACTTGCAG | 0.984
191 | CCTGTAAGAA | 1.05
192 | GTGTGGGCA | 1.01
193 | TATACGAGGA | 1.07
194 | GGGGA | 1.03
195 | GGTCTGTCAG | 0.998
196 | ACGCTTGGAA | 1.04
197 | GTTGTAGTAT | 0.99
198 | ATGACTCTTG | 1.04
199 | GGTTAACGCC | 0.909
200 | GCTCGGTTAC | 2.02
201 | TAGCTAAAAA | 0.99
